The source of these data is ChEMBL document CHEMBL4888484, “Replenishing the malaria drug discovery pipeline: Screening and hit evaluation of the MMV Hit Generation Library 1 (HGL1) against asexual blood stage Plasmodium falciparum ,using a nano luciferase reporter read-out” (2022).

The whole screen tested about 150,000 compounds, of which about 540 (0.36%) showed an effect of 50% or more. This is one part of the list.

The test system of this test is Plasmodium falciparum. Kind of test: Primary screen in NF54 nanoGlo assay, in single point, at 2uM, 72h; a lower Z score goes with more inhibition. In kind it is functional, Erythrocyte. Particulars: timepoint 72 hour.
Turning to `c1cncc(COC2CCN(Cc3ccc4occc4c3)CC2)c1`, the “% Inhibition” value is recorded as -6% and the Z score worked out at 0.94.
The matching figures for `Cc1cc(=O)c(C(=O)Nc2cc(C3CC3)ccn2)c[nH]1`: -16% and 2.04.
The matching figures for `CC(=O)N1CC[C@H](CN(C)Cc2c(Cl)cccc2N2CCCC2)C1`: -7% and 0.7.
`N[C@H]1C[C@H](c2cc(NCCCn3nccc3C3CC3)nc(C3CC3)n2)C1`: the “% Inhibition” value is 2% and the Z score was -0.29.
For the compound `CC(NC(=O)c1cnns1)C1CN(Cc2ccccc2)CCO1` (stereo not drawn), the “% Inhibition” value is 11% and the Z score is -1.45.
In the same order, the values of `CC(C)(NC(=O)c1ccc(C(F)F)c(F)c1)C1CCOCC1` are 3% and -0.43.
For the compound `CCc1nncn1C1CCN(S(=O)(=O)c2ccccc2C)CC1`, the “% Inhibition” value is given as -13% and the Z score is reported as 2.42.
The matching figures for `CC(C)CC1(NC[C@]2(O)CCCN(Cc3cccc(F)c3F)C2=O)CC1`: -3% and 0.38.
The matching figures for `CCCN1CC[C@H](Nc2cc(OC)nc(N)n2)C1`: 4% and -0.85.
With `Cc1ccc(OCC(=O)Nc2noc(-c3cccc4ccccc34)n2)cc1`, the “% Inhibition” value is given as 0% and the Z score turned out to be 0.01.
In the same order, the values of `CCOC(=O)N1CCC(NC(=O)C2CCCCC2C(=O)N2CCc3ccccc32)CC1` (stereo not drawn) are 8% and -1.49.
In the same order, the values of `COc1ccc(C[C@](C)(O)CNC(=O)c2ccc3c(c2)OCO3)cc1` are -14% and 2.33.
The matching figures for `CNC(=O)c1cc(NC(=O)N2CCCC[C@@H]2CN2CCCC2)ccc1OC`: -9% and 1.52.
As to `CS(=O)(=O)Nc1nc2ccc(NC(=O)c3cc(-c4ccccc4)nc4ccccc34)cc2s1`, the “% Inhibition” value stood at 48% and the Z score was -4.83.
On to `Cc1cc(N2CCC(NC(=O)c3ncccn3)CC2)n[nH]1`, for which the “% Inhibition” value worked out at 9% and the Z score is -1.13.
Consider `CN(C)[C@H]1CCN(CC(=O)NCc2ccccc2C(F)(F)F)C1`, for which the “% Inhibition” value was determined as 3% and the Z score is on record as -0.65.
For the compound `CCCc1noc(Cn2nc(C)nc2-c2ccccn2)n1`, the “% Inhibition” value is 3% and the Z score is on record as -0.4.
In the same order, the values of `Cc1ccc(C(=O)NC[C@@]23CNC[C@]2(C(F)(F)F)C3)cc1` are -6% and 0.87.
The matching figures for `CN1c2ccc(F)cc2OC[C@@H]1CC(=O)NCc1ccc(F)cc1`: -13% and 2.28.
On to `Cc1nn(C)c2nc(N3C[C@H]4CCN(C)[C@H]4C3)sc12`, for which the “% Inhibition” value came to 16% and the Z score is on record as -2.13.
For the compound `Cn1nc2nc(N3CCN(Cc4ccc(F)cc4)CC3)nc(-c3ccc(F)c(Cl)c3)c2c1N`, the “% Inhibition” value is -6% and the Z score is 0.81.
Consider `CN1CC(=O)N(Cc2nc(C3CCCC3)nn2CC(F)(F)F)C1=O`, for which the “% Inhibition” value is -12% and the Z score came to 1.38.
In the case of `CCN(CC)C(=O)c1cc(C)cc(C)c1`, the “% Inhibition” value is on record as -13% and the Z score is given as 1.46.
In the same order, the values of `O=C(C[C@@]1(O)C(=O)N(CN2CCOCC2)c2ccccc21)c1ccc2c(c1)CCCC2` are 4% and -0.48.
In the same order, the values of `COc1cccc(Cn2cnc3c(c2=O)COCC3)c1Cl` are 14% and -1.84.
In the same order, the values of `CCC1(CC)CNC(=O)[C@H]1NC(=O)CCc1ccc(F)cc1` are -10% and 1.8.
For the compound `O=c1ccc(-c2nnco2)cn1CN1CCN(S(=O)(=O)c2ccccc2)CC1`, the “% Inhibition” value is -5% and the Z score stood at 1.04.
The matching figures for `CCOc1ccc(C(=O)Nc2cnc(-n3nc(C)cc3C)nc2)cc1`: -6% and 0.93.
In the same order, the values of `COc1cc2ccc1Oc1cccc(c1)CO[C@H]1CN(C(=O)c3cc[nH]n3)C[C@@H]1NC(=O)CN(C1CC1)C(=O)CC2` are 7% and -0.91.
In the same order, the values of `Clc1ccc(O[C@H]2CCNC2)cc1Cl` are 10% and -1.46.
Regarding `C[C@@H](c1nnnn1C1CC1)N1CCN(CC(=O)N(C)C2CCCCC2)CC1`, the “% Inhibition” value was determined as 6% and the Z score was -1.09.
The matching figures for `Brc1cnn(Cc2cc(-c3ccccc3)on2)c1`: -34% and 3.99.
In the same order, the values of `C[C@H]1CS(=O)(=O)CCN1CC(=O)N(C)C1CCCCC1` are -8% and 1.27.
In the same order, the values of `O=C(NC1CC1)C1CCN(C2CCN(C(=O)C#Cc3ccccc3)CC2)CC1` are 0% and -0.02.
For the compound `CCOC1CC(NC(CC)CC#N)C12CCC2` (stereo not drawn), the “% Inhibition” value is 1% and the Z score is on record as -0.16.
`COc1cc(N2CCC3(CC2)[C@H](O)C[C@@H]3OC)nc(N)n1`: the “% Inhibition” value is listed as -19% and the Z score is 3.8.
As to `CNc1nc(C)ccc1C(=O)N1C[C@@H](C)[C@H](C(N)=O)C1`, the “% Inhibition” value is reported as -11% and the Z score is 1.27.
The matching figures for `O=C(Cc1ccc(-n2cnnc2)cc1)N[C@H]1C[C@H](Oc2ccccc2)C1`: 5% and -0.93.
In the same order, the values of `O=C(Cc1ccccc1)N(c1ccc2oc(=O)sc2c1)S(=O)(=O)c1ccc(Cl)c(Cl)c1` are -25% and 3.14.
As to `CCc1ccc(CN2CCC(C(=O)O)(n3ccc(C(C)(C)C)n3)CC2)o1`, the “% Inhibition” value was 2% and the Z score is -0.14.
In the same order, the values of `O=C(CCc1ccccn1)N[C@H]1CNCCC1(F)F` are 3% and -0.37.
In the same order, the values of `CCn1ncc2cc(C(=O)Nc3cn(C)c(=O)n(C)c3=O)c(C)nc21` are 3% and -0.38.
The matching figures for `O=C(C1CCCC(F)(F)C1)N1CCCC(Oc2ncccc2F)C1` (stereo not drawn): 8% and -1.15.
As to `CC[C@@H]1Oc2ccc(C(=O)n3nc(C)cc3C)cc2N(Cc2ccccc2)C1=O`, the “% Inhibition” value is listed as -12% and the Z score came to 1.34.
As to `NC(=O)c1ccc(NC(=O)CC2(C(=O)O)Cc3ccccc3C2)cc1`, the “% Inhibition” value is listed as -13% and the Z score was 1.08.
Take `O=C1C[C@@H](C(=O)Nc2ccccc2F)n2ncc(-c3ccccc3)c2N1`: the “% Inhibition” value was found to be 6% and the Z score is reported as -0.95.
The matching figures for `Nc1cccc(CC(=O)N2CCOC3CCCCC32)c1` (stereo not drawn): -8% and 1.
`O=C(COc1cccnc1)N[C@H]1CCCC[C@H]1CC(F)(F)F`: the “% Inhibition” value was -7% and the Z score is 0.97.
In the same order, the values of `CC(=O)N1CCC[C@](c2nnnn2CCC(C)C)(N2CCN(C(C)C)CC2)C1` are -9% and 1.07.
In the same order, the values of `CCCc1nc(CNC(=O)c2cc[nH]c2C)cs1` are -17% and 1.49.
The matching figures for `CN(CCCC1CCCC1)Cc1cc(=O)[nH]c(=O)[nH]1`: -2% and 0.31.
`Cc1nnc(CN[C@H]2CC(C)(C)OC2(C)C)n1C1CC1`: the “% Inhibition” value is on record as -10% and the Z score is given as 1.51.
In the same order, the values of `Fc1ccc(Br)c(CNC2C[C@@H]3COC[C@H]23)c1` (stereo partly drawn) are -9% and 1.68.
In the same order, the values of `CCn1cc(-c2nn(C)cc2C(=O)N2CCN3C(=O)NC(=O)[C@@H]3C2)cn1` are 21% and -2.41.
The matching figures for `COc1ccccc1-c1noc(C[C@H]2CCOc3ccccc32)n1`: -3% and 0.41.
`O=C(NCCn1c(-c2ccccc2)nc2ccccc21)Nc1cccc(F)c1`: the “% Inhibition” value is recorded as -9% and the Z score worked out at 1.19.
In the same order, the values of `CCc1nccn1CCN1CCCC[C@@H]1CCO` are -4% and 0.51.
Take `Cc1cc(NC(=O)N2CCn3nc(C(F)(F)F)cc3C2)cc(C)n1`: the “% Inhibition” value is given as -1% and the Z score is on record as 0.27.
On to `CN(C)C(=O)COC(=O)c1ccc(O)cc1O`, for which the “% Inhibition” value was determined as 21% and the Z score was -2.87.
In the case of `Cc1ccc(=O)n(CC(=O)N2CCC(Cc3ccccc3)CC2)n1`, the “% Inhibition” value stood at 13% and the Z score is recorded as -1.74.
In the same order, the values of `CC[C@@H]1CCO[C@@H]1C(=O)Nc1cccc(CC(=O)O)c1` are 5% and -0.75.
The matching figures for `O=C(N[C@H]1CCN(C2CCCCC2)C1)c1cccnn1`: -14% and 2.16.
The matching figures for `CC(C)C1CC(Nc2nnc(C(F)F)o2)CCO1` (stereo not drawn): -14% and 1.99.
With `O=C(CN1CCCN(c2ccc(C(F)(F)F)cn2)CC1)Nc1ccnn1Cc1cccs1`, the “% Inhibition” value is given as -1% and the Z score was determined as 0.16.
In the same order, the values of `Cn1c(CN2CCCCCC2)nnc1C1CCN(C2CCCC2)CC1` are 3% and -0.49.
As to `O=C(O)c1ccc2c(c1)CN(C[C@H](O)c1ccc(Cl)cc1)CC2`, the “% Inhibition” value was -8% and the Z score stood at 1.18.
In the same order, the values of `Cc1c(Nc2ccc(S(=O)(=O)N3CCOCC3)cc2Cl)c(=O)n(-c2ccccc2)n1C` are -1% and 0.14.
For the compound `CCN(CC)C(=O)[C@@H]1CCCN1Cc1ccsc1`, the “% Inhibition” value was -5% and the Z score is recorded as 0.71.
The matching figures for `CC1=C(C(=O)N2CCOCC2)[C@H](c2ccccc2Cn2cccn2)NC(=O)N1`: -21% and 2.08.
In the same order, the values of `Cc1cc(CN(C)C(=O)c2ccc3nc(C4CCCCC4)oc3c2)n[nH]1` are -5% and 0.9.
In the same order, the values of `CCCc1cc(NC(=O)NCCn2cc(C(=O)OC)nn2)n(C)n1` are -3% and 0.27.
As to `CCCN(CCC)S(=O)(=O)c1cc(-c2c(C)nn3c2NC(=O)CCC3=O)ccc1OC`, the “% Inhibition” value is -11% and the Z score amounted to 1.32.
For the compound `O=C(NCc1ccsc1)N1CCC[C@H](CN2CCOCC2)C1`, the “% Inhibition” value amounted to 0% and the Z score is on record as -0.04.
The matching figures for `CCn1nnc2c(N3CCN(C(=O)NCCc4ccc(OC)cc4)CC3)ncnc21`: 4% and -0.64.
For `O=C(c1ccccc1Cl)N1N=C(C2CCCCC2)C[C@]1(O)C(F)(F)F`, the “% Inhibition” value is -14% and the Z score is reported as 1.54.
The matching figures for `CC(C)(C)n1cc(CN2CCO[C@H](c3cc(F)c(Cl)cc3Cl)C2)nn1`: -3% and 0.35.
In the same order, the values of `O=C(NC1CC2CCC1O2)NC1CC1c1ccc(F)cc1F` (stereo not drawn) are 4% and -0.58.
In the same order, the values of `Cc1ccccc1C(=O)N[C@@H]1CCCC[C@H]1NC(=O)C1CCCN(C(=O)C2CCCC2)C1` (stereo partly drawn) are -6% and 0.54.
On to `COc1ccc(N2CCN(C(=O)c3ncn(C[C@H](O)c4ccccc4)n3)CC2)cc1`, for which the “% Inhibition” value is recorded as 5% and the Z score is listed as -0.59.
In the same order, the values of `CCCc1ccc(-c2cc(NC(=O)[C@@H]3CCCO3)n(CCO)n2)cc1` are -1% and 0.13.
In the same order, the values of `COc1ccccc1N1C(=O)C2C(C)NC3(C(=O)N(CC(=O)N4CCOCC4)c4ccccc43)C2C1=O` (stereo not drawn) are -4% and 0.6.
The matching figures for `COCCc1nc(CCn2nnnc2C)n(-c2cc(Cl)ccc2OC)n1`: -20% and 1.87.
For the compound `COCC[C@H]1CN(Cc2nncn2C(C)C)CCO1`, the “% Inhibition” value turned out to be 9% and the Z score was -1.23.
The matching figures for `Cc1cc(C(=O)N2CCC[C@H]2C(=O)NCC2CCOCC2)c2nccc(C)c2c1`: 0% and -0.05.
